Measured values reported in the supplement of paper PMC3334620.
Over roughly 33,000 sequences, “E-score (-0.5 to 0.5)” has its median near -0.054; the highest 2% begin near 0.35. The list shows a part of the results.

What follows are sequences tested against T1, Stb5 (UniProt P38699) (assay: PBM E-score (8-mer binding enrichment) (E-score (-0.5 to 0.5)); higher = stronger / more preferred TF binding; most listed sequences are background and not binding sites). Settings: protein concentration: 200 nM; construct: GST-full length.
T1 sequence: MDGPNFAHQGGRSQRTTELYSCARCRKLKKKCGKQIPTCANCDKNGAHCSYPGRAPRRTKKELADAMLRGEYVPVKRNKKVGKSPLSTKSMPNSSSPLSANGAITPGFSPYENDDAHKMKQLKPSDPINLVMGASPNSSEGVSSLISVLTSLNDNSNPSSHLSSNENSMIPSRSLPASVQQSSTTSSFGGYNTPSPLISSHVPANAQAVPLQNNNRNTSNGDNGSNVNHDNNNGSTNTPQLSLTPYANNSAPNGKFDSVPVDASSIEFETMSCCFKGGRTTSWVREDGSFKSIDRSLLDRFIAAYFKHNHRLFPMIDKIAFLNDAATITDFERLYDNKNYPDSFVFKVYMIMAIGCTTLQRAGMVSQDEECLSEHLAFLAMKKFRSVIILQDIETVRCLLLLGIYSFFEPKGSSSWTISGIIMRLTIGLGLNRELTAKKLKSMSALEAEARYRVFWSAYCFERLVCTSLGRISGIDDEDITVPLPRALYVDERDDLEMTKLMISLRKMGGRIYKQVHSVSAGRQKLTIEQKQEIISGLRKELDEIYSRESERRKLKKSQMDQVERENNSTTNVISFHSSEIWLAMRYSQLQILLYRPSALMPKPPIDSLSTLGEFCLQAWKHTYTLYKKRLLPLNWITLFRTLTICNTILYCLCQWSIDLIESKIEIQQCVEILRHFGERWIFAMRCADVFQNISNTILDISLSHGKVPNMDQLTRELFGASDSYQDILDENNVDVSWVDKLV
Outline: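 Bound GST-tagged yeast transcription factors, applied at about 100-200 nM to double-stranded universal all-10-mer Agilent arrays, were detected with fluorescent anti-GST. Scans were normalised with masliner. A modified Wilcoxon-Mann-Whitney statistic, the E-score, was assigned to each ungapped eight-base word pooled with its reverse complement by the Universal PBM Analysis Suite.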

Sequence	PBM E-score
CCGGCGAA	0.262
AGTAAGTA	-0.0996
ACCCTGTC	-0.137
AATCCGGG	0.233
CTCTCCCC	-0.1
CGTCACGA	-0.0659
AGGCACTC	-0.258
GCTTTTCA	-0.0542
CGGCTACA	0.0788
AATAGATA	-0.119
AATGTTGT	-0.19
CTCGCGAG	-0.148
GTCACGTA	-0.171
ATGGTACA	-0.156
AGGGGTTG	-0.243
GAAGAAGC	-0.127
TGCGACAA	-0.0423
ACCCGAAC	0.149
CGCCCCCA	-0.0403
GGAGCCAA	0.00764
GCCGGGGA	0.276
AACGCGGA	0.188

Sequence	PBM E-score
GCTACTAA	0.138
ATAGCATA	0.0052
ATTAGGGG	-0.196
CACCCACA	-0.00969
GATTATCC	0.0567
CCACGGGA	0.135
AGGTACAC	-0.127
TAGACCCA	-0.208
AGGAAGGG	-0.177
ACTGTAGC	-0.0847
AAAAAAAA	0.0519
CTCTAGCA	-0.236
CGGCCGTA	0.346
AATCTTGG	-0.0505
CCGCCAGG	0.193
TCCTCCCA	-0.103
CAGTGAGC	-0.151
ACGATTTA	-0.0849
GGAATCCA	-0.149
GGTAACGA	-0.085
ACGTATGA	-0.0693
CTACGGCC	0.174

Sequence	PBM E-score
TGAATGCA	-0.174
CGTTCCCC	0.0128
CCGGAATC	0.22
CGGGGCAC	0.133
AAGCCACT	-0.176
ACCCCTCC	-0.118
ACGAGACT	-0.243
AAGGAGAT	0.0485
CTAGCAAA	0.0912
CCGCAGGC	0.233
CATTCGAC	-0.0682
ACCCTACA	-0.268
AAGCAGAA	-0.117
CCTAGTGC	0.00057
AATTGGGC	-0.246
GAAAGCTA	-0.081
AGGGGTAG	-0.141
AGACAGTA	-0.205
GATTTTCA	-0.0236
AACGTCTG	-0.217
AATATCAT	0.0574
AATCCTAA	-0.0777

Sequence	PBM E-score
TCCACAAA	-0.0835
ACTCAACT	-0.00213
ACCGATTG	0.269
TAGACAGA	-0.196
GTAACGAA	-0.0882
AACATGCT	-0.261
AGATTCAA	-0.16
CAATATTG	-0.317
CGGGGCCC	0.157
AATTGTCA	-0.169
CCCATACG	-0.134
CGTATGCA	-0.0425
AAAAGAGT	-0.09
AGAGAGGC	-0.204
CAGCCAGA	-0.15
GAAAGCTC	-0.234
GTACATGA	-0.209
GAGGGTCA	-0.209
CACCACGC	-0.0679
CATAAGCC	0.0714
CAACGAGG	-0.0157
CTGGCATA	0.0405

Sequence	PBM E-score
TCTAGTCA	-0.11
CAACGAGA	-0.134
CCGCGGTA	0.399
GCTCTTAC	0.0111
TGCTCAAA	0.0446
ATTATCGA	-0.192
GGGGTCGA	0.166
CATCATAC	-0.0943
GACTGAGC	-0.258
ATATCGAG	0.116
ACGAAGCA	-0.22
CCCTCCTA	0.0186
AATGCTCT	-0.142
GCAAATAC	-0.0999
GCCTAGTA	-0.0419
CATTATAA	0.197
AGAGTTAC	-0.241
GATGGAAC	-0.124
AATGTTTG	-0.0299
ACAGTTGG	-0.203
AAGCATAG	-0.0769
ACAGCAAC	-0.0898
